As usually defined, the IC50 is the concentration that gives 50% inhibition. Broadly, the IC90 is the point of the concentration-response curve where the effect stands at 90%. A word on the EC50: it is the concentration needed to bring the measured effect to its halfway point.

These results are taken from paper PMC7892437 (Frontiers in Pharmacology, 2021).

Structures are written as SMILES. Values joined by “and” are separate entries in the source; they are usually repeats but may differ in a detail not shown here. Equal entries are not always repeated. Where two headings read alike, the source gives them in different places.

Series [1] has as its system VSV-SARS-CoV-2-Sdel18 pseudovirus. In words: microbe, parasite or virus in culture. Format: cell-based.
The subject of series [2] is SARS-CoV-2 BetaCoV/Shenzhen/SZTH-003/2020 strain. In words: microbe, parasite or virus in culture. Format: cell-based. To be noted: Severe acute respiratory syndrome coronavirus 2, Vero, 120 h.
For the next series, the system named is EBOV-76. Conditions: strain EBOV-76; ref Johansen et al., 2013; cited from earlier work.

Regarding `CCCCc1oc2ccccc2c1C(=O)c1cc(I)c(OCCN(CC)CC)c(I)c1.Cl` [Amiodarone (hydrochloride)], the IC50 in series [1] (read-out: IC50) is ~4.44 µM and 4.44 µM.

With `CN1CCC[C@@H]1CCO[C@](C)(c1ccccc1)c1ccc(Cl)cc1.O=C(O)/C=C/C(=O)O` [Clemastine (fumarate)], the “cytotoxicity compared with the other selected drugs” value with BHK21-hACE2 cells was “more serious cytotoxic than other drugs”. The IC50 in series [1] (read-out: IC50) was found to be 8.32 µM. The IC90 in series [1] (read-out: IC90) is < 50 µM and 29.9 µM.

With `CCN(CC)CCOc1ccc(C(=C(Cl)c2ccccc2)c2ccccc2)cc1` [Clomiphene (citrate)], the IC50 in series [1] (Pseudovirus, read-out: Co-treatment IC50) came to 9.53 µM; in series [2] it was 9.73 µM. Also, the IC90 in series [1] (Pseudovirus, read-out: Pre-treatment IC90) turned out to be 10.2 µM.

Regarding `CCN(CC)CCOc1ccc(C(=C(Cl)c2ccccc2)c2ccccc2)cc1` [Clomiphene], in the series with EBOV-76, the EC50 is 3.8 µM.
